# Measured values as given in the supplement of paper PMC8728848.
# This is one part of the list.
# Legend:
# Assay in all cases: glycan array binding signal (z-score within array); higher = stronger binding
# Conditions in all cases: glycan notation: IUPAC condensed, linker removed; mutation: R85A
# [1] = biological target: Gal(b1-3)[Fuc(a1-4)]GlcNAc
# Procedure, shortened: (§1)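 Glycan array data came from 3228 arrays in the Consortium for Functional Glycomics database, and only arrays with an available protein sequence were kept. Glycan names were put into IUPAC-condensed notation, and columns mapping to the same glycan were averaged. The binding signal is a within-array Z-score, averaged across arrays of one protein sequence run at different concentrations or buffers and across linkers. A negative Z-score can be read as non-binding.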
# [2] = biological target: Gal(b1-3)[Fuc(a1-4)]GlcNAc(b1-2)Man(a1-3)[Gal(b1-3)[Fuc(a1-4)]GlcNAc(b1-2)Man(a1-6)]Man(b1-4)GlcNAc(b1-4)GlcNAc
# Procedure, shortened: as §1
# [3] = biological target: Gal(b1-3)[Fuc(a1-4)]GlcNAc(b1-2)Man(a1-3)[Gal(b1-3)[Fuc(a1-4)]GlcNAc(b1-2)Man(a1-6)]Man(b1-4)GlcNAc(b1-4)[Fuc(a1-6)]GlcNAc
# Procedure, shortened: as §1
# [4] = biological target: Gal(b1-3)[Fuc(a1-4)]GlcNAc(b1-3)Gal(b1-3)[Fuc(a1-4)]GlcNAc
# Procedure, shortened: as §1
# [5] = biological target: Gal(b1-3)[Fuc(a1-4)]GlcNAc(b1-3)Gal(b1-4)GlcNAc
# Procedure, shortened: as §1
# [6] = biological target: Gal(b1-3)[Fuc(a1-4)]GlcNAc(b1-3)Gal(b1-4)[Fuc(a1-3)]GlcNAc
# Procedure, shortened: as §1
# [7] = biological target: Gal(b1-3)[GlcNAc(b1-6)]GalNAc
# Procedure, shortened: as §1
# [8] = biological target: Gal(b1-3)[Neu5Ac(a2-6)]GalNAc
# Procedure, shortened: as §1
# [9] = biological target: Gal(b1-3)[Neu5Ac(a2-6)]GlcNAc(b1-6)Gal(b1-4)Glc
# Procedure, shortened: as §1
# [10] = biological target: Gal(b1-3)[Neu5Ac(b2-6)]GalNAc
# Procedure, shortened: as §1
# [11] = biological target: Gal(b1-4)GalNAc(a1-3)[Fuc(a1-2)]Gal(b1-4)GlcNAc
# Procedure, shortened: as §1
# [12] = biological target: Gal(b1-4)GalNAc(b1-3)[Fuc(a1-2)]Gal(b1-4)GlcNAc
# Procedure, shortened: as §1
# Gal(b1-4)Glc = biological target: Gal(b1-4)Glc
# Procedure, shortened: as §1
# Gal(b1-4)Glc6S = biological target: Gal(b1-4)Glc6S
# Procedure, shortened: as §1
# Gal(b1-4)GlcNAc = biological target: Gal(b1-4)GlcNAc
# Procedure, shortened: as §1
# [13] = biological target: Gal(b1-4)GlcNAc(a1-6)Gal(b1-4)GlcNAc
# Procedure, shortened: as §1
# [14] = biological target: Gal(b1-4)GlcNAc(b1-2)Man(a1-3)Man(b1-4)GlcNAc(b1-4)GlcNAc
# Procedure, shortened: as §1
# [15] = biological target: Gal(b1-4)GlcNAc(b1-2)Man(a1-3)[Gal(b1-4)GlcNAc(b1-2)Man(a1-6)]Man(b1-4)GlcNAc(b1-4)GlcNAc
# Procedure, shortened: as §1
# [16] = biological target: Gal(b1-4)GlcNAc(b1-2)Man(a1-3)[Gal(b1-4)GlcNAc(b1-2)Man(a1-6)]Man(b1-4)GlcNAc(b1-4)[Fuc(a1-6)]GlcNAc
# Procedure, shortened: as §1
# [17] = biological target: Gal(b1-4)GlcNAc(b1-2)Man(a1-3)[GlcNAc(b1-2)Man(a1-6)]Man(b1-4)GlcNAc(b1-4)GlcNAc
# Procedure, shortened: as §1
# [18] = biological target: Gal(b1-4)GlcNAc(b1-2)Man(a1-3)[Man(a1-6)]Man(b1-4)GlcNAc(b1-4)GlcNAc
# Procedure, shortened: as §1
# [19] = biological target: Gal(b1-4)GlcNAc(b1-2)Man(a1-6)Man(b1-4)GlcNAc(b1-4)GlcNAc
# Procedure, shortened: as §1
# [20] = biological target: Gal(b1-4)GlcNAc(b1-2)Man(a1-6)[GlcNAc(b1-2)Man(a1-3)]Man(b1-4)GlcNAc(b1-4)GlcNAc
# Procedure, shortened: as §1
# [21] = biological target: Gal(b1-4)GlcNAc(b1-2)Man(a1-6)[Man(a1-3)]Man(b1-4)GlcNAc(b1-4)GlcNAc
# Procedure, shortened: as §1
# [22] = biological target: Gal(b1-4)GlcNAc(b1-2)[Gal(b1-4)GlcNAc(b1-4)]Man(a1-3)[Gal(b1-4)GlcNAc(b1-2)Man(a1-6)]Man(b1-4)GlcNAc(b1-4)GlcNAc
# Procedure, shortened: as §1
# [23] = biological target: Gal(b1-4)GlcNAc(b1-2)[Gal(b1-4)GlcNAc(b1-4)]Man(a1-3)[Gal(b1-4)GlcNAc(b1-2)[Gal(b1-4)GlcNAc(b1-6)]Man(a1-6)]Man(b1-4)GlcNAc(b1-4)GlcNAc
# Procedure, shortened: as §1
# [24] = biological target: Gal(b1-4)GlcNAc(b1-3)Gal(b1-3)GlcNAc
# Procedure, shortened: as §1
# [25] = biological target: Gal(b1-4)GlcNAc(b1-3)Gal(b1-4)Glc
# Procedure, shortened: as §1
# [26] = biological target: Gal(b1-4)GlcNAc(b1-3)Gal(b1-4)GlcNAc
# Procedure, shortened: as §1
# [27] = biological target: Gal(b1-4)GlcNAc(b1-3)Gal(b1-4)GlcNAc(b1-3)Gal(b1-4)GlcNAc
# Procedure, shortened: as §1
# [28] = biological target: Gal(b1-4)GlcNAc(b1-3)Gal(b1-4)[Fuc(a1-3)]GlcNAc(b1-3)Gal(b1-4)[Fuc(a1-3)]GlcNAc
# Procedure, shortened: as §1
# [29] = biological target: Gal(b1-4)GlcNAc(b1-3)GalNAc
# Procedure, shortened: as §1
# [30] = biological target: Gal(b1-4)GlcNAc(b1-3)[Gal(b1-4)GlcNAc(b1-6)]Gal(b1-4)GlcNAc
# Procedure, shortened: as §1
# [31] = biological target: Gal(b1-4)GlcNAc(b1-3)[Gal(b1-4)GlcNAc(b1-6)]GalNAc
# Procedure, shortened: as §1
# [32] = biological target: Gal(b1-4)GlcNAc(b1-3)[GlcNAc(b1-6)]Gal(b1-4)GlcNAc
# Procedure, shortened: as §1
# [33] = biological target: Gal(b1-4)GlcNAc(b1-6)Gal(b1-4)GlcNAc
# Procedure, shortened: as §1
# [34] = biological target: Gal(b1-4)GlcNAc(b1-6)GalNAc
# Procedure, shortened: as §1
# [35] = biological target: Gal(b1-4)GlcNAc(b1-6)[Gal(b1-3)]GalNAc
# Procedure, shortened: as §1
# Gal3S(b1-3)GalNAc = biological target: Gal3S(b1-3)GalNAc
# Procedure, shortened: as §1
# Gal3S(b1-3)GlcNAc = biological target: Gal3S(b1-3)GlcNAc
# Procedure, shortened: as §1
# [36] = biological target: Gal3S(b1-3)[Fuc(a1-4)]GlcNAc
# Procedure, shortened: as §1
# Gal3S(b1-4)Glc = biological target: Gal3S(b1-4)Glc
# Procedure, shortened: as §1
# Gal3S(b1-4)Glc6S = biological target: Gal3S(b1-4)Glc6S
# Procedure, shortened: as §1
# Gal3S(b1-4)GlcNAc = biological target: Gal3S(b1-4)GlcNAc
# Procedure, shortened: as §1
# Gal3S(b1-4)GlcNAc6S = biological target: Gal3S(b1-4)GlcNAc6S
# Procedure, shortened: as §1
binder,measurement,setting,value
"rAAL (Agrocybe aegerita), Q6WY08 (protein) MQGVNIYNISAGTSVDLAAPVTTGDIVTFFSSALNLNAGAGNPNNTTLNLFAENGAYLLHIAFRLQENVIIFNSRQPDGPWLVEQAVSDVANQFAGIDGKAMVTVFDHGDKYQVVINEKTVIQYTKQISGLTLSLSYNATEETSIFSTVVEAVTYTGLALEHHHHHH",glycan array binding signal (z-score),[1],-0.134
same,glycan array binding signal (z-score),[2],0.056
same,glycan array binding signal (z-score),[3],-0.11
same,glycan array binding signal (z-score),[4],-0.129
same,glycan array binding signal (z-score),[5],-0.112
same,glycan array binding signal (z-score),[6],-0.114
same,glycan array binding signal (z-score),[7],-0.113
same,glycan array binding signal (z-score),[8],-0.134
same,glycan array binding signal (z-score),[9],-0.13
same,glycan array binding signal (z-score),[10],-0.13
same,glycan array binding signal (z-score),[11],-0.115
same,glycan array binding signal (z-score),[12],-0.135
same,glycan array binding signal (z-score),Gal(b1-4)Glc,-0.117
same,glycan array binding signal (z-score),Gal(b1-4)Glc6S,-0.099
same,glycan array binding signal (z-score),Gal(b1-4)GlcNAc,-0.13
same,glycan array binding signal (z-score),[13],-0.134
same,glycan array binding signal (z-score),[14],-0.13
same,glycan array binding signal (z-score),[15],-0.141
same,glycan array binding signal (z-score),[16],-0.132
same,glycan array binding signal (z-score),[17],-0.135
same,glycan array binding signal (z-score),[18],-0.138
same,glycan array binding signal (z-score),[19],-0.139
same,glycan array binding signal (z-score),[20],-0.131
same,glycan array binding signal (z-score),[21],-0.138
same,glycan array binding signal (z-score),[22],-0.132
same,glycan array binding signal (z-score),[23],-0.134
same,glycan array binding signal (z-score),[24],-0.122
same,glycan array binding signal (z-score),[25],-0.119
same,glycan array binding signal (z-score),[26],-0.126
same,glycan array binding signal (z-score),[27],-0.132
same,glycan array binding signal (z-score),[28],-0.136
same,glycan array binding signal (z-score),[29],-0.132
same,glycan array binding signal (z-score),[30],-0.139
same,glycan array binding signal (z-score),[31],-0.129
same,glycan array binding signal (z-score),[32],-0.118
same,glycan array binding signal (z-score),[33],-0.133
same,glycan array binding signal (z-score),[34],-0.117
same,glycan array binding signal (z-score),[35],-0.11
same,glycan array binding signal (z-score),Gal3S(b1-3)GalNAc,14.6
same,glycan array binding signal (z-score),Gal3S(b1-3)GlcNAc,3.42
same,glycan array binding signal (z-score),[36],-0.135
same,glycan array binding signal (z-score),Gal3S(b1-4)Glc,3.77
same,glycan array binding signal (z-score),Gal3S(b1-4)Glc6S,4.38
same,glycan array binding signal (z-score),Gal3S(b1-4)GlcNAc,-0.092
same,glycan array binding signal (z-score),Gal3S(b1-4)GlcNAc6S,0.209
